According to PMC8117158, “Structural Basis of RICs Iron Donation for Iron-Sulfur Cluster Biogenesis” (Frontiers in Microbiology, 2021):

Biological target: T1, IscS^C–GFP (E. coli K-12, UniProt P0A6B7 1-404)
T1 construct: IscS, cysteine desulfurase, E. coli K-12, gene amplified from genomic DNA; source: E. coli BL21(DE3) Gold, co-transformed (pMRBAD-link-C-GFP), in cells; not shown: C-GFP fragment of GFP, C-terminal, kept
T1 sequence (looked up): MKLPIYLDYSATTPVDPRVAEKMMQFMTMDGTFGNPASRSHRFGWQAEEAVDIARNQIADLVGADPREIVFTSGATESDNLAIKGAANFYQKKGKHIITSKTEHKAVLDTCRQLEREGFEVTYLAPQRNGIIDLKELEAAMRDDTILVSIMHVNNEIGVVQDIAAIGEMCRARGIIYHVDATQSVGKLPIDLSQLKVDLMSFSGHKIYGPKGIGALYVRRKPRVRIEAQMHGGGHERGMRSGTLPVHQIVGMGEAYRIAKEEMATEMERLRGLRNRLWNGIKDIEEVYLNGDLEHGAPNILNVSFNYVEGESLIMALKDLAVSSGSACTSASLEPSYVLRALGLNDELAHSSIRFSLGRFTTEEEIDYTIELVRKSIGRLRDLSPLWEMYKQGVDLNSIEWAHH
Assay: split reporter (BiFC, NanoBiT); BiFC by reconstitution of GFP from N-GFP and C-GFP fusions co-expressed in E. coli BL21(DE3) Gold; fluorescence microscopy of cells on agarose slides, normalised to empty vectors
Settings: partners not purified

B1: IscU^N–GFP (natural protein, E. coli K-12, UniProt P0ACD4 1-128, looked up)
chain: MAYSEKVIDHYENPRNVGSFDNNDENVGSGMVGAPACGDVMKLQIKVNDEGIIEDARFKTYGCGSAIASSSLVTEWVKGKSLDEAQAIKNTDIAEELELPPVKIHCSILAEDAIKAAIADYKSKREAK
notes: IscU, E. coli K-12, gene amplified from genomic DNA; source: E. coli BL21(DE3) Gold, co-transformed (pET11a-link-N-GFP), in cells; not shown: N-GFP fragment of GFP, N-terminal, kept
B1 was tested, and the “fold fluorescence over the control” value was 3 fold.
